Among all 150,000 compounds or so, about 540 (0.36%) showed an effect of 50% or more. Some of the results follow.

For this assay, the system named is Plasmodium falciparum. Kind of assay: Primary screen in NF54 nanoGlo assay, in single point, at 2uM, 72h; a lower Z score goes with more inhibition. The class given is functional, Erythrocyte. The conditions noted are these: timepoint 72 hour.
In general, % Inhibition refers to the drop in the measured response relative to a control, in per cent. Regarding `COc1ccc(-n2cccn2)cc1S(=O)(=O)N1CCN(C)C(=O)[C@@H]1C`, the “% Inhibition” value is recorded as -11% and the Z score is 1.07.
On the same counts, the results for `COc1ccccc1COC1CCN(Cc2ccc(C#N)o2)CC1` are -1% and 0.11.
On the same counts, the results for `Cc1ccc(CN2CCN(CC(=O)Nc3cc(C)on3)C(=O)C2=O)cc1` are 0% and -0.03.
As to `COC[C@H]1[C@H](NS(=O)(=O)Cc2cc(F)ccc2Cl)[C@H]2CCO[C@H]21`, the “% Inhibition” value is -2% and the Z score was 0.34.
As for `CCOc1ccc(-n2nnc(-c3nc(C)c(C(=O)N(C)Cc4ccccc4)s3)c2C)cc1`, the “% Inhibition” value is -18% and the Z score is on record as 1.66.
On the same counts, the results for `COC(=O)c1cc(C(=O)N[C@@]2(C)CCc3ccccc3C2)ccn1` are -14% and 1.95.
On the same counts, the results for `COc1ccc(-c2nccn2CCN2CCCC[C@@H]2CO)c(C)c1C` are -11% and 1.22.
The like results for `N#Cc1ccccc1-c1ccccc1C(=O)N1CCOCC1` were, in that order, -1% and 0.1.
For the molecule `O=C(O)[C@]12CCCN[C@@H]1CCN(Cc1ccccc1OC(F)(F)F)C2`, the “% Inhibition” value is -21% and the Z score was 2.63.
On the same counts, the results for `Cc1cc(C(=O)N[C@H]2CCc3nnc(C4CC4)n3CC2)c(C)n1Cc1ccco1` are -6% and 1.17.
On the same counts, the results for `CC[C@H](C)NC(=O)C(=O)Nc1ccc(Cl)cc1` are 6% and -0.85.
For `COc1ccc(-c2nc3cc(F)ccc3cc2CN(C(=O)CCc2ccccc2OC)C2CC2)cc1`, the “% Inhibition” value was 0% and the Z score was 0.01.
For the molecule `O=C1COc2cccc(C(=O)N3CC[C@@H]4CC[C@@]43c3cccnc3)c2N1`, the “% Inhibition” value came out at 7% and the Z score is given as -0.74.
On the same counts, the results for `Cn1c(CO)nnc1[C@H]1C[C@@H](NC(=O)CCNC(=O)c2ccc(F)cc2)C1` are -11% and 2.
On the same counts, the results for `Cc1sc2ccccc2c1CN1CC[C@H](N2CCN(C)CC2)C1` are 1% and -0.18.
On the same counts, the results for `Cc1nscc1-c1nc(-c2ccc(N3CCCN(C)CC3)nc2)no1` are -8% and 1.57.
As to `Cc1cccn(Cc2nnnn2C2CC2)c1=O`, the “% Inhibition” value was 40% and the Z score is on record as -5.37.
With `CN(C)c1ccc([C@@H]2C=C(c3ccc(F)cc3)Nc3nnnn32)cc1`, the “% Inhibition” value is listed as 1% and the Z score is reported as -0.11.
The like results for `COc1cc(N(C)C)c(OC)cc1/C=C1\C=Cc2ccccc21` were, in that order, -18% and 2.11.
The like results for `COc1ncnc(N(C)C)c1NC(=O)c1ncoc1-c1cccs1` were, in that order, -8% and 0.78.
On the same counts, the results for `Cc1ncoc1C(=O)N1CCC(Cc2ccc(C(=O)N3CCOCC3)cc2)CC1` are -5% and 0.82.
Consider `CCC[C@H]1CN(CC#N)CCN1CC#N`, for which the “% Inhibition” value was -9% and the Z score is 1.61.
The like results for `CNC(=O)Cn1nc(C(=O)N[C@H]2CC[C@@H](C(=O)NC3CCC3)C2)cc1C` were, in that order, -6% and 0.9.
On the same counts, the results for `COc1ccc([C@H]2CC(=O)Nc3c2c(=O)[nH]n3C2CCCCCCC2)cc1O` are 3% and -0.65.
On the same counts, the results for `COc1cc(=O)n2c(c1C(=O)N(C)Cc1nonc1C)CCN(C(=O)CCC1CCCCC1)CC2` are 2% and -0.43.
In the case of `CC(C)OC1CC(NC[C@H](O)Cc2ccccc2)C1` (some centres undefined), the “% Inhibition” value was -6% and the Z score is reported as 1.22.
`O=S(=O)(c1ccccc1F)N1c2ccncc2N2CCC1C2` (centres undefined): the “% Inhibition” value was found to be 1% and the Z score was -0.14.
On the same counts, the results for `CN1CC2(CCN(S(=O)(=O)c3ccccc3Cl)CC2)OCC1=O` are -7% and 1.39.
For the molecule `Cc1nn(C)c(C)c1-c1cc(C(=O)N[C@@H]2[C@@H]3CCO[C@@H]3[C@H]2N(C)C)n(C)n1`, the “% Inhibition” value is reported as 2% and the Z score is listed as -0.35.
The like results for `O=C(NCCC1CCCO1)C1CC1c1ccco1` (centres undefined) were, in that order, 1% and -0.09.
For `O=C(CS(=O)(=O)C1CCCC1)N1CCC2CCCCC21` (centres undefined), the “% Inhibition” value is on record as -15% and the Z score is on record as 2.51.
The like results for `CC(=O)NCCCc1nc(-c2c[nH]c3ccccc23)n[nH]1` were, in that order, -2% and 0.38.
The like results for `O=S(=O)(Nc1nc2ccccc2nc1Nc1ccccc1N1CCCCC1)c1ccc(Cl)cc1` were, in that order, -9% and 1.45.
On the same counts, the results for `COc1cccc(OCC2c3ccsc3CCN2C(=O)CN(CC(O)COC(C)C)CC2CC2)c1` (centres undefined) are 7% and -0.78.
On to `CCCN(CC)c1ccc(C(=O)OCc2ccccn2)cn1`, for which the “% Inhibition” value was -4% and the Z score worked out at 0.65.
The like results for `CC(=O)N1CC(NC(=O)COC(C)(C)C)C1` were, in that order, -4% and 0.64.
For `COc1ccc(NC(=O)NC2CCCCCCC2)cc1`, the “% Inhibition” value came to 22% and the Z score is reported as -3.12.
On the same counts, the results for `C[C@@H](c1ccccn1)N(C(=O)Nc1ccc(Cl)c(Cl)c1)C1CCCCC1` are -14% and 2.33.
On the same counts, the results for `Cc1c(C(=O)NCc2cccnc2)oc2ccc3c(c12)[C@@H](O)CC1(CCCCC1)O3` are -3% and 0.58.
On the same counts, the results for `C[C@H]1CN(C(=O)CS(=O)(=O)Cc2ccc(Br)cc2)CCN1` are -1% and 0.22.
With `COc1cccc(Cl)c1CN[C@@H](C)C1CCS(=O)(=O)CC1`, the “% Inhibition” value is -12% and the Z score stood at 1.49.
As for `CC1(C)COC[C@H](CS(=O)(=O)NCCNc2ccccc2)O1`, the “% Inhibition” value is 7% and the Z score was -1.25.
